# Reference: the supplement of paper PMC8728848
# This is one part of the list.
# B1: Siglec 6 (Homo sapiens), O43699 (protein)
# chain: MLPLLLPLLWAGALAQERRFQLEGPESLTVQEGLCVLVPCRLPTTLPASYYGYGYWFLEGADVPVATNDPDEEVQEETRGRFHLLWDPRRKNCSLSIRDARRRDNAAYFFRLKSKWMKYGYTSSKLSVRVMALTHRPNISIPGTLESGHPSNLTCSVPWVCEQGTPPIFSWMSAAPTSLGPRTTQSSVLTITPRPQDHSTNLTCQVTFPGAGVTMERTIQLNVSYAPQKVAISIFQGNSAAFKILQNTSSLPVLEGQALRLLCDADGNPPAHLSWFQGFPALNATPISNTGVLELPQVGSAEEGDFTCRAQHPLGSLQISLSLFVHWKPEGRAGGVLGAVWGASITTLVFLCVCFIFRVKTRRKKAAQPVQNTDDVNPVMVSGSRGHQHQFQTGIVSDHPAEAGPISEDEQELHYAVLHFHKVQPQEPKVTDTEYSEIKIHK
# Experiments:
# Test in all cases: glycan array binding signal (z-score within array); higher = stronger binding
# Conditions in all cases: glycan notation: IUPAC condensed, linker removed
# Gal6S(b1-4)Glc = biological target: Gal6S(b1-4)Glc
# How it was run: (§1)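 The Consortium for Functional Glycomics database supplied 3228 glycan arrays, of which those lacking an available protein sequence were dropped. The binding signal, a within-array Z-score, was averaged across arrays of the same protein sequence and across linkers. Negative scores can be read as non-binding.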
# Gal6S(b1-4)Glc6S = biological target: Gal6S(b1-4)Glc6S
# How it was run: as §1
# Gal6S(b1-4)GlcNAc = biological target: Gal6S(b1-4)GlcNAc
# How it was run: as §1
# GalNAc(a1-3)Gal = biological target: GalNAc(a1-3)Gal
# How it was run: as §1
# GalNAc(a1-3)GalNAc = biological target: GalNAc(a1-3)GalNAc
# How it was run: as §1
# [1] = biological target: GalNAc(b1-3)Gal(a1-4)Gal(b1-4)GlcNAc
# How it was run: as §1
# GalNAc(b1-4)GlcNAc = biological target: GalNAc(b1-4)GlcNAc
# How it was run: as §1
# Glc(a1-4)Glc = biological target: Glc(a1-4)Glc
# How it was run: as §1
# Glc(a1-6)Glc(a1-6)Glc = biological target: Glc(a1-6)Glc(a1-6)Glc
# How it was run: as §1
# Glc(b1-4)Glc = biological target: Glc(b1-4)Glc
# How it was run: as §1
# Glc(b1-6)Glc = biological target: Glc(b1-6)Glc
# How it was run: as §1
# GlcA(b1-3)Gal = biological target: GlcA(b1-3)Gal
# How it was run: as §1
# GlcA(b1-6)Gal = biological target: GlcA(b1-6)Gal
# How it was run: as §1
# [2] = biological target: GlcNAc(a1-3)Gal(b1-4)GlcNAc
# How it was run: as §1
# [3] = biological target: GlcNAc(a1-6)Gal(b1-4)GlcNAc
# How it was run: as §1
# [4] = biological target: GlcNAc(b1-2)Gal(b1-3)GlcNAc
# How it was run: as §1
# [5] = biological target: GlcNAc(b1-2)Man(a1-3)[GlcNAc(b1-2)Man(a1-6)]Man(b1-4)GlcNAc(b1-4)GlcNAc
# How it was run: as §1
# GlcNAc(b1-3)Gal = biological target: GlcNAc(b1-3)Gal
# How it was run: as §1
# [6] = biological target: GlcNAc(b1-3)Gal(b1-3)GalNAc
# How it was run: as §1
# GlcNAc(b1-3)Gal(b1-4)Glc = biological target: GlcNAc(b1-3)Gal(b1-4)Glc
# How it was run: as §1
# [7] = biological target: GlcNAc(b1-3)Gal(b1-4)GlcNAc
# How it was run: as §1
# [8] = biological target: GlcNAc(b1-3)Gal(b1-4)GlcNAc(b1-3)Gal(b1-4)GlcNAc
# How it was run: as §1
# GlcNAc(b1-3)GalNAc = biological target: GlcNAc(b1-3)GalNAc
# How it was run: as §1
# [9] = biological target: GlcNAc(b1-3)[GlcNAc(b1-4)][GlcNAc(b1-6)]GlcNAc
# How it was run: as §1
# [10] = biological target: GlcNAc(b1-3)[GlcNAc(b1-6)]Gal(b1-4)GlcNAc
# How it was run: as §1
# [11] = biological target: GlcNAc(b1-3)[GlcNAc(b1-6)]GlcNAc
# How it was run: as §1
# [12] = biological target: GlcNAc(b1-4)Gal(b1-4)GlcNAc
# How it was run: as §1
# [13] = biological target: GlcNAc(b1-4)GlcNAc(b1-4)GlcNAc
# How it was run: as §1
# [14] = biological target: GlcNAc(b1-4)GlcNAc(b1-4)GlcNAc(b1-4)GlcNAc(b1-4)GlcNAc
# How it was run: as §1
# [15] = biological target: GlcNAc(b1-4)GlcNAc(b1-4)GlcNAc(b1-4)GlcNAc(b1-4)GlcNAc(b1-4)GlcNAc
# How it was run: as §1
# [16] = biological target: GlcNAc(b1-4)[GlcNAc(b1-6)]GalNAc
# How it was run: as §1
# [17] = biological target: GlcNAc(b1-6)Gal(b1-4)GlcNAc
# How it was run: as §1
# GlcNAc(b1-6)GalNAc = biological target: GlcNAc(b1-6)GalNAc
# How it was run: as §1
# Kdn(a2-3)Gal(b1-3)GlcNAc = biological target: Kdn(a2-3)Gal(b1-3)GlcNAc
# How it was run: as §1
# Kdn(a2-3)Gal(b1-4)GlcNAc = biological target: Kdn(a2-3)Gal(b1-4)GlcNAc
# How it was run: as §1
# [18] = biological target: Man(a1-2)Man(a1-2)Man(a1-3)Man
# How it was run: as §1
# [19] = biological target: Man(a1-2)Man(a1-2)Man(a1-3)[Man(a1-2)Man(a1-3)[Man(a1-2)Man(a1-6)]Man(a1-6)]Man(b1-4)GlcNAc(b1-4)GlcNAc
# How it was run: as §1
# [20] = biological target: Man(a1-2)Man(a1-2)Man(a1-3)[Man(a1-2)Man(a1-6)[Man(a1-3)]Man(a1-6)]Man(b1-4)GlcNAc(b1-4)GlcNAc
# How it was run: as §1
# [21] = biological target: Man(a1-2)Man(a1-2)Man(a1-6)[Man(a1-3)]Man
# How it was run: as §1
# Man(a1-2)Man(a1-3)Man = biological target: Man(a1-2)Man(a1-3)Man
# How it was run: as §1
# [22] = biological target: Man(a1-2)Man(a1-3)[Man(a1-2)Man(a1-6)]Man
# How it was run: as §1
# [23] = biological target: Man(a1-2)Man(a1-3)[Man(a1-3)[Man(a1-6)]Man(a1-6)]Man(b1-4)GlcNAc(b1-4)GlcNAc
# How it was run: as §1
# [24] = biological target: Man(a1-2)Man(a1-3)[Man(a1-6)]Man(a1-6)[Man(a1-2)Man(a1-3)]Man(b1-4)GlcNAc(b1-4)GlcNAc
# How it was run: as §1
# Man(a1-3)[Man(a1-6)]Man = biological target: Man(a1-3)[Man(a1-6)]Man
# How it was run: as §1
# [25] = biological target: Man(a1-3)[Man(a1-6)]Man(a1-6)[Man(a1-3)]Man(b1-4)GlcNAc(b1-4)GlcNAc
# How it was run: as §1
# [26] = biological target: Man(a1-3)[Man(a1-6)]Man(b1-4)GlcNAc(b1-4)GlcNAc
# How it was run: as §1
# Man(b1-4)GlcNAc = biological target: Man(b1-4)GlcNAc
# How it was run: as §1
# Neu5Ac(a2-3)Gal = biological target: Neu5Ac(a2-3)Gal
# How it was run: as §1
# [27] = biological target: Neu5Ac(a2-3)Gal(b1-3)GalNAc
# How it was run: as §1
binder,measurement,setting,value
B1,glycan array binding signal (z-score),Gal6S(b1-4)Glc,0.086
same,glycan array binding signal (z-score),Gal6S(b1-4)Glc6S,2.08
same,glycan array binding signal (z-score),Gal6S(b1-4)GlcNAc,-0.197
same,glycan array binding signal (z-score),GalNAc(a1-3)Gal,-0.358
same,glycan array binding signal (z-score),GalNAc(a1-3)GalNAc,-0.219
same,glycan array binding signal (z-score),[1],-0.151
same,glycan array binding signal (z-score),GalNAc(b1-4)GlcNAc,-0.266
same,glycan array binding signal (z-score),Glc(a1-4)Glc,-0.186
same,glycan array binding signal (z-score),Glc(a1-6)Glc(a1-6)Glc,0.114
same,glycan array binding signal (z-score),Glc(b1-4)Glc,-0.282
same,glycan array binding signal (z-score),Glc(b1-6)Glc,-0.081
same,glycan array binding signal (z-score),GlcA(b1-3)Gal,0.376
same,glycan array binding signal (z-score),GlcA(b1-6)Gal,0.211
same,glycan array binding signal (z-score),[2],-0.158
same,glycan array binding signal (z-score),[3],-0.48
same,glycan array binding signal (z-score),[4],1.16
same,glycan array binding signal (z-score),[5],-0.115
same,glycan array binding signal (z-score),GlcNAc(b1-3)Gal,-0.334
same,glycan array binding signal (z-score),[6],-0.324
same,glycan array binding signal (z-score),GlcNAc(b1-3)Gal(b1-4)Glc,-0.515
same,glycan array binding signal (z-score),[7],0.424
same,glycan array binding signal (z-score),[8],-0.441
same,glycan array binding signal (z-score),GlcNAc(b1-3)GalNAc,-0.357
same,glycan array binding signal (z-score),[9],-0.12
same,glycan array binding signal (z-score),[10],-0.362
same,glycan array binding signal (z-score),[11],-0.433
same,glycan array binding signal (z-score),[12],-0.111
same,glycan array binding signal (z-score),[13],-0.378
same,glycan array binding signal (z-score),[14],-0.063
same,glycan array binding signal (z-score),[15],-0.321
same,glycan array binding signal (z-score),[16],-0.382
same,glycan array binding signal (z-score),[17],-0.459
same,glycan array binding signal (z-score),GlcNAc(b1-6)GalNAc,-0.454
same,glycan array binding signal (z-score),Kdn(a2-3)Gal(b1-3)GlcNAc,-0.474
same,glycan array binding signal (z-score),Kdn(a2-3)Gal(b1-4)GlcNAc,-0.395
same,glycan array binding signal (z-score),[18],-0.148
same,glycan array binding signal (z-score),[19],-0.32
same,glycan array binding signal (z-score),[20],-0.537
same,glycan array binding signal (z-score),[21],-0.41
same,glycan array binding signal (z-score),Man(a1-2)Man(a1-3)Man,0.114
same,glycan array binding signal (z-score),[22],-0.281
same,glycan array binding signal (z-score),[23],-0.141
same,glycan array binding signal (z-score),[24],-0.209
same,glycan array binding signal (z-score),Man(a1-3)[Man(a1-6)]Man,-0.208
same,glycan array binding signal (z-score),[25],-0.265
same,glycan array binding signal (z-score),[26],-0.276
same,glycan array binding signal (z-score),Man(b1-4)GlcNAc,-0.385
same,glycan array binding signal (z-score),Neu5Ac(a2-3)Gal,-0.464
same,glycan array binding signal (z-score),[27],-0.164
